The list shows a part of the results. At the low end of the ranking the order means little.
Target: T1, GST-Rok (full length) (UniProt O34857)
T1 sequence: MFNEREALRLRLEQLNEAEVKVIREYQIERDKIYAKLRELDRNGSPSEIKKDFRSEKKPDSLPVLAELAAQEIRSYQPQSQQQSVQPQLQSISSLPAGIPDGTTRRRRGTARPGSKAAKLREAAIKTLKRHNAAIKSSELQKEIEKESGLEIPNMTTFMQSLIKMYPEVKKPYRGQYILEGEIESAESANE
Assay: protein binding microarray;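 also: rank score from −0.5 (least bound) to 0.5 (best bound)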
Details: Rok is a gene silencer of Bacillus subtilis; high values mean tight binding; most listed sequences are background and not binding sites; double strand, one strand shown

Sequence	binding signal [E-score]
AGCACGCG	-0.0941
CCATTCGG	-0.176
AGAGCTAG	-0.0248
CCAAACAG	-0.0174
CATGAACC	-0.18
GACGACGA	-0.0685
AAAGGCTG	-0.141
CCCAATAC	-0.0829
AAGTGTGG	0.0336
CCGGCGCA	-0.192
CCCAAAAA	0.0798
CCATTTTC	-0.00971
CCCGCCTC	-0.371
CAGCTTTC	-0.0895
ATCATTAG	0.121
CAGACCAC	-0.23
AACTCACA	0.103
GCTGTTCC	-0.0131
AAAGGGCA	-0.0463
CCTCCGTC	-0.432
AGTGCTCC	-0.387
ATAGCCAA	0.0646
CACCTCAA	-0.0154
CGACTTCA	0.0389

Sequence	binding signal [E-score]
CAAAGTTA	0.0253
CTCCGTAA	-0.163
CTACGAAC	0.0431
CTTCATTA	0.13
CCCCGCTA	-0.291
TATATCGA	0.304
AATGTAAC	0.246
TAATTGAA	0.0218
GTAGAGAA	0.189
GGACACAC	-0.197
GCCTCATA	-0.166
ATCATTTG	0.166
GCACAAGC	-0.16
TCCATTCA	-0.123
GCTTACGA	-0.00757
GCTGGGGA	-0.275
AAGGCATG	-0.0797
TGCTGAAA	-0.0464
AATCAGGG	-0.054
AGATTTAC	0.29
GAAAGATA	0.241
AGATGCAA	-0.00215
CGGCGCGC	-0.318
ACACTCAT	-0.073

Sequence	binding signal [E-score]
GAATTACC	0.216
GCGTTTAA	-0.0485
AAGCAGGA	-0.124
CAAGGTGG	-0.21
AGTTATCC	0.0385
CTAGAGCC	-0.223
TCACTGCA	0.017
CGTTGATA	0.219
CGGCGAGA	-0.114
CAGCCGTA	-0.029
ACAGACTA	0.252
CCGACGCG	-0.297
ACCCGATC	-0.248
GGATGGGA	-0.123
AAGACCAT	-0.15
CGTAAACC	0.143
ACTGCACA	0.19
AATAGCTA	0.358
GGGGGCGA	-0.301
AAGGGTCT	-0.115
ATCTTGGG	-0.16
ACCATTAG	0.126
CTTAATAC	0.18
GCTGCTCA	-0.193

Sequence	binding signal [E-score]
CAGGTAGG	-0.226
AGCATAAT	0.325
GGGGCATA	-0.0458
CTGAGATC	0.0666
CTCTTAAC	-0.035
ATGGTATC	0.165
GCAAGACC	-0.235
CTAAATAC	0.351
GCTATGGA	0.0828
AACTCGAA	0.03
ATTGCGTA	0.296
GAAAGTTA	0.135
TGCCAAAA	-0.08
AGGCATGG	-0.277
GAACAGGC	-0.0613
CGGCCCTA	-0.27
CTGTATAA	0.265
AACGTCCC	-0.193
CGCACGGA	-0.131
ATTTTCAA	-0.0223
CAGCGACG	-0.136
GACTAATC	0.0382

Source: publication PMC6212790
